Experimental data taken from the supplement of paper PMC4996465.

Key:
[1] = system: Nalm-6; experiment: viability (% of DMSO control); higher = more viable cells
Description: (§1)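 Eleven-dose screen of the NCATS MIPE 3 library on cells without co-treatment; CellTiter-Glo after 48 h, as % of DMSO wells.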

[2] = system: KB3-1; experiment: as above
Description: as §1

Row | Compound | viability ([1]; run: 1, 0.00078 µM) | viability ([1]; run: 1, 0.00234 µM) | viability ([1]; run: 1, 0.00702 µM) | viability ([1]; run: 1, 0.0211 µM) | viability ([1]; run: 1, 0.0632 µM) | viability ([1]; run: 1, 0.19 µM) | viability ([1]; run: 1, 0.569 µM) | viability ([1]; run: 1, 1.71 µM) | viability ([1]; run: 1, 5.12 µM) | viability ([1]; run: 1, 15.4 µM) | viability ([1]; run: 1, 46.1 µM) | viability ([1]; run: 2, 0.00078 µM) | viability ([1]; run: 2, 0.00234 µM) | viability ([1]; run: 2, 0.00702 µM) | viability ([1]; run: 2, 0.0211 µM) | viability ([1]; run: 2, 0.0632 µM) | viability ([1]; run: 2, 0.19 µM) | viability ([1]; run: 2, 0.569 µM) | viability ([1]; run: 2, 1.71 µM) | viability ([1]; run: 2, 5.12 µM) | viability ([1]; run: 2, 15.4 µM) | viability ([1]; run: 2, 46.1 µM) | viability ([2]; 0.00078 µM) | viability ([2]; 0.00234 µM) | viability ([2]; 0.00702 µM) | viability ([2]; 0.0211 µM) | viability ([2]; 0.0632 µM) | viability ([2]; 0.19 µM) | viability ([2]; 0.569 µM) | viability ([2]; 1.71 µM) | viability ([2]; 5.12 µM) | viability ([2]; 15.4 µM) | viability ([2]; 46.1 µM)
1 | C[C@]12CCC(=O)C(O)=C1CC[C@@H]1[C@@H]2CC[C@]2(C)C(=O)CC[C@@H]12 [Formestane] | 120% | 110% | 117% | 119% | 121% | 117% | 118% | 117% | 99.1% | 102% | 93.1% | 102% | 106% | 107% | 101% | 103% | 104% | 105% | 107% | 96.4% | 90.3% | 85% | 109% | 103% | 105% | 109% | 114% | 108% | 110% | 100% | 102% | 104% | 95.9%
2 | C[C@H](NC(=O)Cc1cc(F)cc(F)c1)C(=O)N[C@H](C(=O)OC(C)(C)C)c1ccccc1 [GSI-9] | 97.4% | 105% | 89% | 102% | 102% | 112% | 101% | 105% | 106% | 98.1% | 91.6% | 107% | 104% | 97.6% | 107% | 101% | 105% | 102% | 99.4% | 99.9% | 96.9% | 94.6% | 96.6% | 94.5% | 90.6% | 94% | 91% | 96.2% | 93.5% | 95.3% | 98.1% | 94.1% | 86.4%
3 | O=C(NCC[S+](=O)([O-])c1ccc(C(F)(F)F)cn1)c1ccc(Cl)cc1 [GSK-3787] | 102% | 106% | 114% | 110% | 108% | 105% | 117% | 116% | 111% | 108% | 101% | 113% | 106% | 107% | 101% | 96.8% | 111% | 109% | 99.9% | 107% | 103% | 102% | 103% | 104% | 107% | 102% | 103% | 110% | 103% | 95.6% | 106% | 105% | 103%
4 | O=C(/C=C/c1ccc(/C=C/C(=O)Nc2ccc(C3=NCCN3)cc2)cc1)Nc1ccc(C2=NCCN2)cc1 [GW 4869] | 123% | 119% | 128% | 113% | 127% | 120% | 128% | 125% | 119% | 109% | 112% | 112% | 114% | 111% | 110% | 114% | 111% | 51.2% | 111% | 108% | 93.7% | 107% | 107% | 110% | 107% | 113% | 111% | 107% | 107% | 106% | 103% | 103% | 107%
5 | Cc1cc(SCc2sc(-c3ccc(C(F)(F)F)c(F)c3)nc2C)ccc1OCC(=O)O [GW-0742] | 105% | 112% | 117% | 113% | 113% | 114% | 118% | 122% | 125% | 115% | 72.3% | 108% | 112% | 116% | 104% | 107% | 113% | 113% | 110% | 117% | 111% | 81.3% | 101% | 99.8% | 104% | 102% | 106% | 100% | 104% | 101% | 102% | 100% | 78.5%

Viability of KB3-1 and Nalm-6 cells after 48 h of drug alone (CellTiter-Glo), 11 doses over about 4.5 log units. % of DMSO wells, lower = more cell loss; AC50 from the fitted curve, lower = more potent. No active / inactive call. Nalm-6 was screened in two runs. AC50 is listed only for well-fitted inhibitory curves. KB3-1 is a HeLa-derived carcinoma line, Nalm-6 a B-cell precursor leukaemia line.
